Assay results from PubChem BioAssay AID588855 (National Center for Advancing Translational Sciences (NCATS), 2011).
Among all 410,000 compounds or so, about 5,000 (1.2%) were called active. This list was built around the results that the source calls inconclusive (neither active nor inactive); the mix of calls is not that of the screen. The call rests on the fitted dose curve; in most records, active means well fitted inhibition curve with a large enough effect; inconclusive means small, poorly fitted or top-dose-only effect; inactive means no such curve, though single readings can be large or run the other way. Where the call is inconclusive, the potency comes from a doubtful curve fit.

experiment: qHTS for Inhibitors of TGF-b; details: HepG2 CAGA-GFP TGF-b/SMAD3 reporter, GFP fluorescence, 18 h, TGF-beta stimulated, 500 pg/mL final; series mostly up to 46.1 µM; activity, negative = inhibition: at the top concentration; further: nearly all actives have a fitted effect of over 65% in size
Outline: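 GFP signal (ex488/em500-530) from TGF-beta-stimulated HEPG2 CAGA-GFP cells, 500 pg/mL final, 18 h at 37 degrees C in DMEM plus 1% FBS, normalized to unstimulated and DMSO-stimulated controls.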
On the % scale 0 is the no-effect control and ±100 the full control effect; potency means the concentration at half of the fitted maximal effect; tags describe the fitted curve by direction and shape.

| SMILES | Potency | activity, negative = inhibition |
| --- | --- | --- |
| CCN(CC(=O)Nc1cc(Cl)ccc1C)C(=O)CCOc1ccc(C)cc1 | inconclusive: 3.55 µM [inhibitor, full curve, poor fit] | – |
| O=C(NCCN1CCOCC1)NC1(C(F)(F)F)Oc2ccc(Cl)cc2O1 (stereo not drawn) | – | inactive: 0% |
| CCOc1ccc(C(=O)NCC(c2cccs2)S(=O)(=O)c2ccccc2)cc1 (stereo not drawn) | – | inactive: -15% |
| O=S(=O)(Nc1ccc(-n2cccc2)cc1)c1ccc(F)cc1 | inconclusive: 35.5 µM [inhibitor, partial curve, poor fit] | – |
| O=C(CCl)N1CCN(S(=O)(=O)Cc2ccccc2)CC1 | inconclusive: 35.5 µM [inhibitor, single point] | – |
| CC1(C)Cc2c(sc3ncn4nc(-c5ccco5)nc4c23)CO1 | inconclusive: 3.98 µM [inhibitor, partial curve] | – |
| COc1cccc(CC(=O)N(CCC2=CCCCC2)c2c(N)n(Cc3ccccc3)c(=O)[nH]c2=O)c1 | – | inactive: -16.5% |
| COc1ccc(NS(=O)(=O)c2ccc(C)c(C(=O)NCCCn3ccnc3)c2)cc1 | – | inactive: -4.81% |
| CCOc1ccc(C(=O)NCCSc2c(C)[nH]c3ccccc23)cc1OCC | inconclusive: 12.6 µM [inhibitor, partial curve, poor fit] | – |
| CCn1c(O)c(C=NC2CCCC(C)C2C)sc1=S (stereo not drawn) | inconclusive: 12.6 µM [inhibitor, partial curve, poor fit] | – |
| COc1cc(NC(=O)COC(=O)c2n[nH]c3ccccc23)c(C)cc1[N+](=O)[O-] | inconclusive: 35.5 µM [inhibitor, single point] | – |
| CNC(=O)/C(C#N)=c1\s/c(=C/C(=O)OC)c(=O)n1-c1ccccc1 | – | inactive: -4.85% |
| S=C(NCc1ccco1)Nc1ccc(Cl)cc1 | inconclusive: 0.316 µM [inhibitor, full curve, poor fit] | – |
| CCOc1ccccc1NC(=O)c1ccc(F)c(S(=O)(=O)N2CCN(c3ccc(F)cc3)CC2)c1 | – | inactive: 1.02% |
| C=CCn1c(SC2CCOC2=O)nc2sc(CC)cc2c1=O (stereo not drawn) | inconclusive: 17.8 µM [inhibitor, partial curve] | – |
| CCN(CC)c1ccc(/C=N/NC(=O)c2cccc(S(=O)(=O)N3CCOCC3)c2)c(O)c1 | inconclusive: 6.31 µM [inhibitor, single point] | – |
| CSc1ncccc1C(=O)Nc1nc2ccc(Oc3ccccc3)cc2s1 | inconclusive: 22.4 µM [inhibitor, single point] | – |
| COc1ccc(C(=O)Nc2nnc(Cc3ccc(OC)c(OC)c3)s2)cc1 | – | inactive: 15.9% |
| COc1ccccc1CC(=O)OC(C)C(=O)Nc1ccc(S(=O)(=O)N2CCCCC2)cc1 (stereo not drawn) | inconclusive: 11.2 µM [inhibitor, single point] | – |
| CCOC(=O)c1sc(-c2ccc(Cl)cc2)nc1O | – | inactive: -1.56% |
| CC(=O)c1c(C)oc2c1cc(NS(=O)(=O)c1ccc(C(C)(C)C)cc1)c1ccccc12 | inconclusive: 25.1 µM [inhibitor, partial curve, poor fit] | – |
| CCCCC[C@@H](/C=C/C1C(=O)C=C[C@H]1C/C=C\CCCC(=O)OC)OC(C)=O (stereo partly drawn) | inconclusive: 35.5 µM [inhibitor, single point] | – |
| Cc1cc(C)c(NC(=O)Cn2c(=O)n(Cc3ccc(C(=O)NCc4ccc5c(c4)OCO5)cc3)c(=O)c3ccccc32)c(C)c1 | – | inactive: 0% |

| SMILES | Potency | activity, negative = inhibition |
| --- | --- | --- |
| C[C@H](O)Cc1cc2ccccc2c(=O)o1 | inconclusive: 35.5 µM [inhibitor, single point] | – |
| COc1cccc(CNC(=O)CN2C(=O)COc3ccc(S(=O)(=O)N4CCOCC4)cc32)c1 | inconclusive: 1 µM [inhibitor, full curve] | – |
| Cc1ccc(Cl)cc1NC(=S)N(CCN(C)C)C(C)c1ccccn1 (stereo not drawn) | – | inactive: -28.9% |
| COc1ccccc1C(=O)Nc1ccc(N2CCN(C(C)=O)CC2)cc1 | – | inactive: -2.38% |
| O=C(NC(c1ccc(Cl)cc1)c1cnccn1)C1CCN(Cc2cccc(C(F)(F)F)c2)CC1 (stereo not drawn) | – | inactive: -24.4% |
| Nc1nnc(-c2ccc([N+](=O)[O-])o2)s1 | inconclusive: 35.5 µM [inhibitor, single point] | – |
| Cc1ccc(NC(=O)COc2ccccc2)cc1S(=O)(=O)N1CCCCCC1 | inconclusive: 14.1 µM [inhibitor, single point] | – |
| COc1cccc(-n2c(SCc3ccc(F)cc3)nc3c([nH]c4ccccc43)c2=O)c1 | inconclusive: 15.8 µM [inhibitor, single point] | – |
| Cc1ccc2c(c1)c1nc3ccccc3nc1n2C | – | inactive: 33% |
| CN(Cc1ccccc1)C(=O)c1ccccc1C(=O)OCC(=O)N(Cc1ccccc1)C(C)(C)C | inconclusive: 35.5 µM [inhibitor, single point] | – |
| O=C(NCc1cccs1)c1cc2c(s1)CS(=O)(=O)C2 | inconclusive: 3.16 µM [inhibitor, single point] | – |
| CC(C)C1CC(O)(C2(O)CCCCC2)ON1 (stereo not drawn) | inconclusive: 0.794 µM [inhibitor, full curve, poor fit] | – |
| C=CCC(COCc1ccccc1)NS(=O)(=O)c1ccccc1Br (stereo not drawn) | inconclusive: 11.2 µM [inhibitor, single point] | – |
| COc1ccc(-c2c(C)nn3c(N4CCCCCC4)cc(C)nc23)cc1OC | inconclusive: 22.4 µM [inhibitor, single point] | – |
| Cc1ccc(C(=O)N2CCn3c4c(c5cc(C)ccc53)CCCC42)cc1 (stereo not drawn) | inconclusive: 17.8 µM [inhibitor, single point] | – |
| Cc1ccc(C(O)c2ncc(-c3cccc4ccccc34)[nH]2)cc1F (stereo not drawn) | inconclusive: 11.2 µM [inhibitor, single point] | – |
| CC(C)CC(=O)NC(=S)Nc1cc(C(F)(F)F)ccc1N1CCOCC1 | – | inactive: -8.41% |
| COc1ccccc1N(C)S(=O)(=O)c1ccc(C)c(C(=O)N2CCCCCC2)c1 | – | inactive: -2.19% |
| CC(C)c1ccc(NS(=O)(=O)c2cc(Br)cc3c2N(C(=O)C2CC2)CC3)cc1 | – | inactive: -2.55% |
| Cc1ccc([C@@H]2CC=C(C(=O)O)[C@H](c3ccc(Br)cc3)N2S(=O)(=O)c2ccc(C)cc2)cc1 | inconclusive: 35.5 µM [inhibitor, single point] | – |
| O=C(N/C(=C/c1ccc(Cl)cc1)C(=O)N1CCOCC1)c1ccccc1 | inconclusive: 6.31 µM [inhibitor, single point] | – |
| COC(=O)c1c(SCc2ccc(C#N)cc2)nc(=O)[nH]c1C | – | inactive: 5.13% |
| S=c1[nH]nc(-c2cccs2)n1/N=C/c1cn(-c2ccccc2)nc1-c1ccc(Cl)cc1 | inconclusive: 35.5 µM [inhibitor, single point] | – |

| SMILES | Potency | activity, negative = inhibition |
| --- | --- | --- |
| Cc1ccc(-c2nn(-c3ccccc3)c3c2cnc2ccccc23)cc1C | – | inactive: -4.76% |
| CCOc1ccc(NCc2cccn2-c2nnc(N3CCC(C(=O)NCCCN4CC(C)CC(C)C4)CC3)s2)cc1 (stereo not drawn) | inconclusive: 22.4 µM [inhibitor, single point] | – |
| O=[N+]([O-])c1ccc(NCCCNS(=O)(=O)c2ccccc2)cc1 | inconclusive: 6.31 µM [inhibitor, partial curve] | – |
| CC(C)(C)OC(=O)C[C@@H]1C/C=C\C[C@@H](CC(=O)N[C@H](CO)Cc2ccccc2)C(=O)N2CCC[C@H]2COC1=O | inconclusive: 35.5 µM [inhibitor, single point] | – |
| Cc1sc2nc(CN3CCCC3)nc(Cl)c2c1C | inconclusive: 15.8 µM [inhibitor, single point] | – |
| Cc1cc(NC(=O)Nc2nnc(N3CCCCCC3)s2)ccc1Br | – | inactive: -5.7% |
| Cc1ccc(SCC(c2ccccc2)N2CCN(CCc3ccccc3)CCC2=O)cc1 (stereo not drawn) | inconclusive: 22.4 µM [inhibitor, single point] | – |
| O=C(c1cccc(Br)c1)N1CCN(S(=O)(=O)N2CCCCCC2)CC1 | inconclusive: 35.5 µM [inhibitor, single point] | – |
| O=C(NCc1ccc2c(c1)OCO2)c1cccc(S(=O)(=O)N2CCCCC2)c1 | – | inactive: 2.44% |
| O=C(O)CNC(=O)c1ccc(NC(=O)/C(=C/c2cccc([N+](=O)[O-])c2)NC(=O)c2ccco2)cc1 | inconclusive: 35.5 µM [inhibitor, single point] | – |
| CCN(CC)CCCNC(=O)CCC(=O)NNc1nc2ccccc2c2nc(C)nn12 | inconclusive: 35.5 µM [inhibitor, single point] | – |
| N#CC1=C(S)N(c2ccc(F)cc2)C(c2cccs2)NC1=O (stereo not drawn) | – | inactive: 0.833% |
| COc1cccc(-c2nc(CS(=O)(=O)CC(=O)N3CCOCC3)c(C)o2)c1 | – | inactive: 5.59% |
| COc1ccc(C2CC(=O)c3c(O)cc(O)cc3O2)c(CC=C(C)C)c1OC (stereo not drawn) | inconclusive: 35.5 µM [inhibitor, single point] | – |
| OC1(c2ccc(Cl)cc2)CCN(Cc2cn[nH]c2-c2ccc(F)cc2)CC1 | active: 3.98 µM | – |
| Cc1cc(=O)[nH]c(SCC(=O)C23CC4CC(CC(C4)C2)C3)c1C#N | inconclusive: 35.5 µM [inhibitor, single point] | – |
| COc1cc(-c2ccc3sc(-c4ccsc4)c(C#CCO)c3c2)cc(OC)c1OC | active: 15.8 µM | – |
| O=S(=O)(c1ccccc1)c1nc(NCc2ccccc2)sc1Cl | inconclusive: 35.5 µM [inhibitor, single point] | – |
| COc1ccc(C(C(=O)Nc2ccc(F)cc2)N(C(=O)Cn2nnc3ccccc32)C2CC2)cc1 (stereo not drawn) | inconclusive: 1.26 µM [inhibitor, full curve] | – |
| COc1ccccc1CNC(=O)c1c(N)n(CCCN2CCOCC2)c2nc3ccccc3nc12 | inconclusive: 35.5 µM [inhibitor, single point] | – |
| O=C(c1ccc2c(=O)n3c(nc2c1)CCCCC3)N1CCN(c2ccc([N+](=O)[O-])cc2)CC1 | – | inactive: -23.1% |
| FC(F)Sc1ccc(NC(=S)NC(c2ccccc2)c2ccccc2)cc1 | active: 5.62 µM | – |
